# In article PMC7819943, “Rice protein-binding microarrays: a tool to detect cis-acting elements near promoter regions in rice”:
# The list shows a part of the results.
# Biological target: T1, OsWOX13 (Oryza sativa, UniProt Q5QMM3 1-267)
# T1 sequence: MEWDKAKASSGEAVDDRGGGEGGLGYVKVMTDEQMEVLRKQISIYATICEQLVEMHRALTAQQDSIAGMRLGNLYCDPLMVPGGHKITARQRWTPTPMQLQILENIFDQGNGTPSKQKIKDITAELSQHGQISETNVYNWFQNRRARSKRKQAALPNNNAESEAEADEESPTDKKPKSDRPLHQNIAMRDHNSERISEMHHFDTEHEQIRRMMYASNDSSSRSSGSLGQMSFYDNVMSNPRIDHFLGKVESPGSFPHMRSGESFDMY
# Assay: protein-binding microarray (RPBM); PBS, 2% BSA, 51.3 ng/ul salmon testes DNA, 50 uM zinc acetate, 200 nM TF, 25 C, 1 h; high values mean tight binding
# Conditions: protein: recombinant; tags: N-terminal polyhistidine and DsRed monomer fusion (pET32a); label: CyDye5-dUTP incorporated in the synthesized complementary strand; 3' TTTTT single-stranded linker to array surface; dsDNA, one strand shown
# Method in brief: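 Per-feature fluorescence intensity (arbitrary units), read on an Axon 4000B scanner, is the binding signal. Transcription factors carrying an N-terminal polyhistidine tag and DsRed fusion were expressed in E. coli BL21-CodonPlus and purified on Ni–NTA. A custom Agilent array, made double-stranded by primer extension with Cy5-dUTP and blocked with 2% BSA, was incubated with 200 nM protein in PBS, 2% BSA, salmon testes DNA and 50 µM zinc acetate at 25 °C for 1 h and then washed.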
row,Sequence,binding signal
1,CAATCTGACCATCAAATCAAATCAAATCAATGGCAAACACCGGAGTCACCTAGTGCAG,4790 fluorescence intensity (a.u.)
2,CCGACAGCTAGTGATTAGGAGGCGGTGGCTAGTGGTGGCGCGGAGTCACCTAGTGCAG,4380 fluorescence intensity (a.u.)
3,TCTCAAATTAAGTGTAGCCATGATAATCCGTGTCCAACGTCGGAGTCACCTAGTGCAG,3160 fluorescence intensity (a.u.)
4,ACACTCATTCTGCTCTTAATTAATGTGCAAACAGTTTGCTCGGAGTCACCTAGTGCAG,6830 fluorescence intensity (a.u.)
5,CAGGTAAACAAATTAGTTTCTCCTCTTAAAAGCTTAATTTCGGAGTCACCTAGTGCAG,4680 fluorescence intensity (a.u.)
6,ATGAAATTGTCGGAATGTAACGAAATTTTGTGTTACGTTCCGGAGTCACCTAGTGCAG,4190 fluorescence intensity (a.u.)
7,CAAATTGAAAATGCAATCGATCCAACAGGAAGCAACCACCCGGAGTCACCTAGTGCAG,4000 fluorescence intensity (a.u.)
8,TAAAACTAACATGTATAGTAGATTGGCTATAAGTTTATCCCGGAGTCACCTAGTGCAG,6400 fluorescence intensity (a.u.)
9,CATTGTCATCCTGAGTAGATTGCCAATTATATGGGTTTGGCGGAGTCACCTAGTGCAG,6170 fluorescence intensity (a.u.)
10,CCAAGAAATTACTGCTAGCGATTGAACATTTCACGTCAGACGGAGTCACCTAGTGCAG,4830 fluorescence intensity (a.u.)
11,AAAACTTAATTGAGAACACAGCTCAATCTAGCTGATAAAACGGAGTCACCTAGTGCAG,22800 fluorescence intensity (a.u.)
12,GAAGATAGATGAATTGTCTGCCTTGCTTGCTGAAGCGATGCGGAGTCACCTAGTGCAG,11600 fluorescence intensity (a.u.)
13,AGCTAATTGCTACACTTTGACCTGTCATCAATCTTTGGATCGGAGTCACCTAGTGCAG,29600 fluorescence intensity (a.u.)
14,AATAATTGTGCTCACAACGTGACAATTAGCAGCCAGTGTTCGGAGTCACCTAGTGCAG,27700 fluorescence intensity (a.u.)
15,TCCAACGATTATAAATGATTGTGATGTACAGTGTTGCTTTCGGAGTCACCTAGTGCAG,13800 fluorescence intensity (a.u.)
16,TTTAGGATTGAAGTAAACTGTAAACTATATGTCTGACCGCCGGAGTCACCTAGTGCAG,16600 fluorescence intensity (a.u.)
17,GTTTGTTATTTAAATTAAGACTTAGCTTGTCAAGTATAGGCGGAGTCACCTAGTGCAG,6720 fluorescence intensity (a.u.)
18,CTAGAATGATTTACATTGTGAAACGGAGAAAGTATATTTACGGAGTCACCTAGTGCAG,7280 fluorescence intensity (a.u.)
19,TATCAAAATTTTGCGAGTGATTAGTGAACGGTGCAACGCGCGGAGTCACCTAGTGCAG,16100 fluorescence intensity (a.u.)
20,TGTTCAATTTGATTAAACTCACCGCTCTGCATAAATCACGCGGAGTCACCTAGTGCAG,14600 fluorescence intensity (a.u.)
21,CAACAATTTATTCTATGTCAGCTTATCATAATCTTGCTTACGGAGTCACCTAGTGCAG,4820 fluorescence intensity (a.u.)

row,Sequence,binding signal
1,AATTAAATTGTTAACTGGAACTCGCAGGCCAGGTTCTCAGCGGAGTCACCTAGTGCAG,34300 fluorescence intensity (a.u.)
2,CCAAAATAGATGAGAGTATTATAGACATTAGCCTCCATGCCGGAGTCACCTAGTGCAG,14500 fluorescence intensity (a.u.)
3,TATGTAATTAGTTTTGTAAGTAGTCTATATTTAATACTCTCGGAGTCACCTAGTGCAG,13100 fluorescence intensity (a.u.)
4,GATGATTAATCTGAACCGCCTGCCCAAAAGGCACAGAGGTCGGAGTCACCTAGTGCAG,23900 fluorescence intensity (a.u.)
5,GAAATTGTTAATCCAGCTAGGGATTGTTTATTAGTTTGCCCGGAGTCACCTAGTGCAG,6600 fluorescence intensity (a.u.)
6,GGACTGGGGCAGGAGGGAGGGGAGGAGCAGGTCGGAGAGTCGGAGTCACCTAGTGCAG,4030 fluorescence intensity (a.u.)
7,ATGATTTGTTCCCACGACCTCCATTGTACCGAAATAATATCGGAGTCACCTAGTGCAG,6490 fluorescence intensity (a.u.)
8,ACTTAATAAAATCAAACGTCACAGTTCCGTACTTTTCAGTCGGAGTCACCTAGTGCAG,3370 fluorescence intensity (a.u.)
9,ACTGCCTAATTGGCCAGACCATGCATGCACTAGTAATACTCGGAGTCACCTAGTGCAG,20600 fluorescence intensity (a.u.)
10,TCGCTAATTATCAGAGCGGAAGACCGCACGTGACACTGCACGGAGTCACCTAGTGCAG,33500 fluorescence intensity (a.u.)
11,ATATATATATATATATATATATATGTGCGCGCGCGCTTGCCGGAGTCACCTAGTGCAG,4400 fluorescence intensity (a.u.)
12,AAAAGAAACGAGTGATTGAGGGAAGTAGACTTGAGCCGTTCGGAGTCACCTAGTGCAG,12300 fluorescence intensity (a.u.)
13,CGCCAATTATTGAATGAACTAAAGCGAGTCAATTATTACCCGGAGTCACCTAGTGCAG,42300 fluorescence intensity (a.u.)
14,GAGTAAATTTAGTTGGCGACTTTGCTGGTTATACAAGTCTCGGAGTCACCTAGTGCAG,4680 fluorescence intensity (a.u.)
15,CCATTCGCGCCGTGATTGGATTCTTCCGATCCTCTTGTATCGGAGTCACCTAGTGCAG,18500 fluorescence intensity (a.u.)
16,GCCAAATTAACCAACATAAAACACTAGCTCTAGTTAATATCGGAGTCACCTAGTGCAG,4960 fluorescence intensity (a.u.)
17,TTGATAAACTGTAACTGCTTTCAGTGTACAATTCGCTAACCGGAGTCACCTAGTGCAG,17600 fluorescence intensity (a.u.)
18,CTAAATTTTAGGAAAGAAACATAAATTCCATGCCATGTTTCGGAGTCACCTAGTGCAG,3810 fluorescence intensity (a.u.)
19,AGTAATTTATGAGTAAAACTTTTCTTAGCGATTTAGAAGTCGGAGTCACCTAGTGCAG,15000 fluorescence intensity (a.u.)
20,ATAATTAGTATTTTCATTGTTATTAGATGATAAAACATGACGGAGTCACCTAGTGCAG,9020 fluorescence intensity (a.u.)
21,TGCTGGTTGATTGATTGATTGATGGACAAATAGGTAGATGCGGAGTCACCTAGTGCAG,56300 fluorescence intensity (a.u.)
